Test results published in the supplement of paper PMC4604168 (melanoma cell lines).
The list shows a part of the results. Single values are uncertain, as repeats are few or missing.

Legend:
Test in all cases: cell count relative to DMSO control; melanoma cells; higher = more viable cells
Conditions in all cases: library dose: standard library concentration; 72 h
SkMel28 = tested on: SkMel28
SkMel2 = tested on: SkMel2
SkMel30 = tested on: SkMel30
SkMel5 = tested on: SkMel5
UACC257 = tested on: UACC257
UACC62 = tested on: UACC62
WM115 = tested on: WM115
WM1716 = tested on: WM1716
WM1745 = tested on: WM1745
WM3526 = tested on: WM3526
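Note: cells treated in 1,536-well plates, then fixed and DAPI-stained, with nuclei counted from automated high-throughput microscope images.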

Row | Compound | cell count (SkMel28) | cell count (SkMel2) | cell count (SkMel30) | cell count (SkMel5) | cell count (UACC257) | cell count (UACC62) | cell count (WM115) | cell count (WM1716) | cell count (WM1745) | cell count (WM3526)
1 | C[C@]12O[C@H](C[C@]1(O)CO)n1c3ccccc3c3c4c(c5c6ccccc6n2c5c31)CNC4=O [Lestaurtinib] + O=C(O)c1ccc(-c2c[nH]c3ncc(-c4ccccc4)cc23)cc1C1CCCC1 [GSK650394] (first compound 0.02 µM, partner dose 0.8 µM) | 56.9% | 105% | 77% | 52.6% | 79.6% | 92.5% | 70.6% | 94.3% | 82.4% | 71.4%
2 | N.N.[Cl][Pt][Cl] [cisplatin] + CN(NC(=O)CC(=O)NN(C)C(=S)c1ccccc1)C(=S)c1ccccc1 [STA4783] (first compound 8 µM, partner dose 0.03 µM) | 119% | 96.5% | 82.7% | 92.3% | 85.1% | 105% | 87.9% | 101% | 84% | 107%
3 | Cn1cc(C2=C(c3cn(C4CCN(Cc5ccccn5)CC4)c4ccccc34)C(=O)NC2=O)c2ccccc21 [Enzastaurin] + Nc1cccc2c1CN(C1CCC(=O)NC1=O)C2=O [lenalidomide] (first compound 4 µM, partner dose 5 µM) | 103% | 103% | 90.7% | 72.9% | 87% | 78.4% | 75.5% | 71.4% | 69.6% | 89.1%
4 | N.N.[Cl][Pt][Cl] [cisplatin] + Cn1cncc1[C@@](N)(c1ccc(Cl)cc1)c1ccc2c(c1)c(-c1cccc(Cl)c1)cc(=O)n2C [tipifarnib] (first compound 8 µM, partner dose 0.05 µM) | 85.8% | 75.5% | 110% | 77.1% | 68.5% | 80.9% | 66% | 74% | 84.5% | 98.9%
5 | C[C@]12O[C@H](C[C@]1(O)CO)n1c3ccccc3c3c4c(c5c6ccccc6n2c5c31)CNC4=O [Lestaurtinib] + COCC[n+]1c2c(n(Cc3cnccn3)c1C)C(=O)c1ccccc1C2=O [YM155] (first compound 0.02 µM, partner dose 0.002 µM) | 46.5% | 58.5% | 63.5% | 49.2% | 32% | 63.8% | 58% | 61.5% | 84.1% | 43.9%
6 | Cn1cc(C2=C(c3cn(C4CCN(Cc5ccccn5)CC4)c4ccccc34)C(=O)NC2=O)c2ccccc21 [Enzastaurin] + COc1ccc(Cl)c(Nc2nc3ccccc3nc2NS(=O)(=O)c2cccc(NC(=O)C(C)(C)N)c2)c1 [XL147] (first compound 4 µM, partner dose 4 µM) | 73.7% | 91.2% | 106% | 72.5% | 81.3% | 70.2% | 122% | 70.7% | 56.8% | 91%
7 | C[As](C)SC[C@H](NC(=O)CC[C@H](N)C(=O)O)C(=O)NCC(=O)O [Darinaparsin] + COc1ccc(COc2ccc(Cc3cnc(N)nc3N)cc2OC)cc1 [GW2580] (first compound 2 µM, partner dose 5 µM) | 84% | 95.9% | 77.3% | 65.8% | 89% | 94.3% | 81.6% | 73% | 90% | 92.9%
8 | C[As](C)SC[C@H](NC(=O)CC[C@H](N)C(=O)O)C(=O)NCC(=O)O [Darinaparsin] + CC1(C)NC(=O)N(c2ccc([N+](=O)[O-])c(C(F)(F)F)c2)C1=O [nilutamide] (first compound 2 µM, partner dose 5 µM) | 65.9% | 76.8% | 99.8% | 51.7% | 82.5% | 94.7% | 63.4% | 64.5% | 91.9% | 82.7%
9 | Cn1cc(C2=C(c3cn(C4CCN(Cc5ccccn5)CC4)c4ccccc34)C(=O)NC2=O)c2ccccc21 [Enzastaurin] + NC(=O)c1ccc(N(C(N)=O)c2c(F)cccc2F)nc1-c1ccc(F)cc1F [VX702] (first compound 4 µM, partner dose 2 µM) | 95.6% | 71.5% | 91.6% | 76.7% | 104% | 69.5% | 102% | 75.1% | 69.8% | 101%
10 | C[As](C)SC[C@H](NC(=O)CC[C@H](N)C(=O)O)C(=O)NCC(=O)O [Darinaparsin] + O=C(O)c1ccc(-c2c[nH]c3ncc(-c4ccccc4)cc23)cc1C1CCCC1 [GSK650394] (first compound 2 µM, partner dose 0.8 µM) | 64.3% | 62.4% | 83.3% | 55.9% | 72% | 74.9% | 79.2% | 77.4% | 84.1% | 68.2%
11 | Cn1cc(C2=C(c3cn(C4CCN(Cc5ccccn5)CC4)c4ccccc34)C(=O)NC2=O)c2ccccc21 [Enzastaurin] + Cc1ccc(NC(=O)c2cccc(N(C)C)c2)cc1NC(=O)c1ccc(O)cc1 [ZM336372] (first compound 4 µM, partner dose 10 µM) | 81.9% | 71.8% | 92.5% | 67.1% | 75.2% | 85.1% | 119% | 112% | 57% | 93.8%
12 | N.N.[Cl][Pt][Cl] [cisplatin] + Nc1ncn([C@H]2C[C@H](O)[C@@H](CO)O2)c(=O)n1 [decitabine] (first compound 8 µM, partner dose 0.5 µM) | 59.3% | 84.4% | 88.6% | 72.6% | 78.3% | 52.8% | 65% | 63.1% | 88.6% | 69.2%
13 | C[C@]12O[C@H](C[C@]1(O)CO)n1c3ccccc3c3c4c(c5c6ccccc6n2c5c31)CNC4=O [Lestaurtinib] + NC1(c2ccc(-c3nc4ccn5c(=O)[nH]nc5c4cc3-c3ccccc3)cc2)CCC1 [MK2206] (first compound 0.02 µM, partner dose 2 µM) | 61.9% | 57.3% | 71.8% | 51% | 99.9% | 153% | 28.4% | 76.3% | 66.9% | 36.3%
14 | Cn1cc(C2=C(c3cn(C4CCN(Cc5ccccn5)CC4)c4ccccc34)C(=O)NC2=O)c2ccccc21 [Enzastaurin] + Cn1cncc1[C@@](N)(c1ccc(Cl)cc1)c1ccc2c(c1)c(-c1cccc(Cl)c1)cc(=O)n2C [tipifarnib] (first compound 4 µM, partner dose 0.05 µM) | 78.4% | 64.4% | 96.5% | 88.4% | 102% | 70.5% | 72.8% | 71.9% | 75.4% | 81.9%
15 | Cn1cc(C2=C(c3cn(C4CCN(Cc5ccccn5)CC4)c4ccccc34)C(=O)NC2=O)c2ccccc21 [Enzastaurin] + C=C(c1ccc(C(=O)O)cc1)c1cc2c(cc1C)C(C)(C)CCC2(C)C [Bexarotene] (first compound 4 µM, partner dose 10 µM) | 89.6% | 63.1% | 90.6% | 94.5% | 101% | 87.4% | 99% | 61.6% | 57.4% | 71%
16 | Cn1cc(C2=C(c3cn(C4CCN(Cc5ccccn5)CC4)c4ccccc34)C(=O)NC2=O)c2ccccc21 [Enzastaurin] + Cn1sc(=O)n(Cc2ccccc2)c1=O [TDZD-8] (first compound 4 µM, partner dose 2 µM) | 78.7% | 77.9% | 90.1% | 79.4% | 72.9% | 100% | 130% | 73.2% | 68.6% | 120%
17 | N.N.[Cl][Pt][Cl] [cisplatin] + Cc1nc(Nc2ncc(C(=O)Nc3c(C)cccc3Cl)s2)cc(N2CCN(CCO)CC2)n1 [dasatanib] (first compound 8 µM, partner dose 0.02 µM) | 77.6% | 95.5% | 83.8% | 67.3% | 67% | 90.8% | 74.1% | 69.3% | 55% | 85.4%
18 | N.N.[Cl][Pt][Cl] [cisplatin] + CCCS(=O)(=O)Nc1ccc(F)c(C(=O)c2c[nH]c3ncc(Cl)cc23)c1F [PLX4720] (first compound 8 µM, partner dose 0.4 µM) | 63.6% | 86.5% | 93.1% | 94.1% | 83.8% | 66.6% | 90.4% | 74.6% | 95.5% | 64.8%
19 | Cn1cc(C2=C(c3cn(C4CCN(Cc5ccccn5)CC4)c4ccccc34)C(=O)NC2=O)c2ccccc21 [Enzastaurin] + CCCCCCCCc1ccc(CCC(N)(CO)CO)cc1 [fingolimod] (first compound 4 µM, partner dose 10 µM) | 1.24% | 0.205% | 17.6% | 60.3% | 63.8% | 12.8% | 17.6% | 8.7% | 4.85% | 8.91%
20 | N.N.[Cl][Pt][Cl] [cisplatin] + OCc1c[nH]c2ccccc12 [Indole-3-carbinol] (first compound 8 µM, partner dose 4 µM) | 60.7% | 77.1% | 96% | 83.6% | 90.1% | 94.9% | 112% | 96.2% | 104% | 82%
21 | C[As](C)SC[C@H](NC(=O)CC[C@H](N)C(=O)O)C(=O)NCC(=O)O [Darinaparsin] + C[C@]1(c2nc3c(C(N)=O)cccc3[nH]2)CCCN1 [Veliparib] (first compound 2 µM, partner dose 7 µM) | 72.7% | 71.7% | 76.4% | 36.3% | 74.6% | 80.9% | 60.9% | 58.1% | 81.4% | 65.4%
22 | Cn1cc(C2=C(c3cn(C4CCN(Cc5ccccn5)CC4)c4ccccc34)C(=O)NC2=O)c2ccccc21 [Enzastaurin] + Nc1ncn([C@H]2C[C@H](O)[C@@H](CO)O2)c(=O)n1 [decitabine] (first compound 4 µM, partner dose 0.5 µM) | 66.2% | 59.5% | 120% | 87.2% | 85.9% | 61.5% | 118% | 57.5% | 53.9% | 89.8%
